# Experimental data: the supplement of paper PMC10126150
# Values marked as one replicate rest on one cluster of the flow cell; about a third of the high ones do not repeat.
# Tested on: ATP
# Experiment: switch fluorescence ratio, 500 uM ATP over buffer (Cy3 cluster intensity, sum of 5 cycles each) (fold (ratio)); higher = stronger signal-on switching upon ATP binding; sequences stand for … in TCGTCGGCAGCGTCAGATGTGTATAAGAGACAGTTTTTTTTTTTTTTTTTTTTTTTTT…TC
# Settings: aptamer strand: ATP DNA aptamer (quencher-CACCTGGGGGAGTATTGCGGAGGAAGG + anchor), 100 nM annealed; ATP concentration: 500 uM; one replicate
# How it was run: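 Switching-strand clusters labelled with Cy3 on a modified Illumina MiSeq flow-cell were annealed to 100 nM quencher-labelled ATP aptamer, imaged in selection buffer, and re-imaged after 15 min with 500 uM ATP at 22 °C. This was done over five cycles with NaOH stripping and re-annealing in between. The fluorescence ratio is summed target-cycle over summed buffer-cycle Cy3 intensity per cluster, averaged per switch-domain sequence, excluding clusters outside 100-1000 RFU.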
# 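Also: ATP exposure 15 min at 22 °C before imaging.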
row,Sequence,switch fluorescence ratio
1,CTGTCCGAGG,1
2,ATCGATGGTA,0.943
3,ACTATCTGCG,1
4,TCTGACTGGT,1.22
5,TTAGTTCAT,1.01
6,CTACGTTGAG,1.02
7,TTTGGCGCCA,1
8,CAAGTCCTGT,0.986
9,CGTCGGTTCA,1.04
10,CTTTGTGGAT,0.994
11,TGTTGTTTT,1.04
12,CGTTAAGGG,1.01
13,TGCGGTAATC,1.09
14,GAAGTAGGTT,1.03
15,TAAGCAGGC,1.04
16,CCTCGGGATG,1.28
17,TTGTAACC,1.01
18,CACATGGGCG,0.934
19,GCTGTCTTGC,1.03
20,ACATGACTGG,0.991
21,AACGAGGTG,1.02
22,TCCACAGTT,1.01
23,TACAAACATT,1.13
24,AGACCGGTTT,0.955
25,AGTAAACGAT,0.995
26,CTTATGACAC,1.05

row,Sequence,switch fluorescence ratio
1,GTCCGGACTG,1.02
2,GCGCTGCGTT,1.02
3,ACAATATCGT,0.992
4,TACTATCACT,1.02
5,GTCGCCAGGG,1.02
6,CGTCTGTTGT,1.06
7,AGCGGTTGTT,1
8,CCGTCCTTTT,1.01
9,TCAAAACTCC,1.18
10,CATTAATACT,1.11
11,AGGGTTACAT,0.997
12,ACTTATTCTG,1.03
13,GGCGAGTAGG,0.998
14,TATTCTTTTA,0.995
15,TCCGTTCATG,1.06
16,CTGTGTACGA,1.02
17,TGGGTGAAA,1.02
18,CTACTGGGAC,1.14
19,ATTAGGCTA,1.02
20,TTGGAACTAC,1.22
21,ATTGCTTGCT,0.992
22,GAGGGTATGT,0.992
23,AGGTGTATGG,1.06
24,GGACATAAGC,0.979
25,GACAGGCATA,1.11
26,GTCTTTGTGT,0.972

row,Sequence,switch fluorescence ratio
1,CAAAGATA,1.01
2,TACTGTCGT,1.03
3,TACTGTGTTC,1.05
4,TTTGTCGG,0.979
5,TCTGTATTCT,0.982
6,GAAATGTTTT,0.981
7,AGTTGCATCT,1.01
8,CTTCAGTGG,0.982
9,AAACGGTTGT,1.1
10,CTACGGACAG,1.29
11,TGAGACAGGT,0.932
12,ATCTGAATTC,0.977
13,CGAAACAATT,1.01
14,GCAGCTGGGA,0.991
15,CTGAAGCTGA,1.46
16,CGAAGGCTAC,6.26
17,CAGTTGGTTG,1.01
18,GTCGTTCAAA,1.03
19,GTTGCTTATT,1.03
20,AACATGGGC,1.03
21,AATATGCGT,0.997
22,CTGTCAGCCA,1.09
23,TCTAATTGTG,0.967
24,TACTTGGAAG,1.04
25,CTGTAACTCA,1.03
26,TGAATGGGAA,0.994

row,Sequence,switch fluorescence ratio
1,AGCATAAGAC,1.91
2,ACACGTTAGG,1.03
3,GGACTGTTAA,1.05
4,CTGAGCAGTC,1.45
5,AGAGGAGTAC,0.982
6,CATTATATCA,1.02
7,CCATAACGC,1.14
8,GTGAACTGGG,1.04
9,TCGGGCATCC,0.98
10,CTACCTGCTG,1
11,CTCCAAGCAC,4.69
12,AACTACGATT,1.09
13,CGCTTTTGTA,1.04
14,CGAGATTGCG,0.957
15,GGTCTGGGAA,1.06
16,TCCGTTGGAT,0.989
17,AGTACCTCTG,0.988
18,AGTATCATAT,1
19,CCAGTTTTTG,0.978
20,GACTTAGGTG,1.04
21,CGGCATCGCC,1.02
22,ATTCATCGCC,1.02
23,AATTATGGTA,1.02
24,GACCTTGAA,0.991
25,CAACTGAGAT,0.992
26,CCATGCTCCG,1.35

row,Sequence,switch fluorescence ratio
1,CAAATTTCGG,0.98
2,CTAATTAACC,1.04
3,GCTAGAACAT,1.04
4,GGCGATCGAT,1.03
5,AAACATAAAA,1.27
6,CATAACACCA,1.05
7,GATACAAATG,0.948
8,TTGAGGAGGA,0.996
9,ACTGGCGCTG,1.03
10,TTAGGTGTTC,1.01
11,AGCGGATGCC,0.967
12,GGATCGGATG,0.983
13,AGTCTCCTGG,0.969
14,TCTACCCAGT,1.1
15,AATTAGCTCG,1
16,GTTTCCGCTC,1.93
17,TTCCTCCACG,1.5
18,CACGCTTGTC,1.08
19,GCGCGTTTAC,1.7
20,GCGATAATAG,1.13
21,CTCAGTCCCC,1.12
22,CGGTTTGTGC,1.06
23,TTCATCTGGA,1.1
24,ATTCGCGGGA,1.02
25,CGTGAGATCG,1.04
26,TGTGTGTTTC,1.04

row,Sequence,switch fluorescence ratio
1,GCTCTGATTG,0.994
2,GTTTCCGAAA,1.03
3,ACTGGCTTAT,1.04
4,TCGTTCTTCG,1.05
5,GGCAAGTGTA,1.01
6,TGGCGGTGGA,0.983
7,AGGCCTGATC,1.09
8,CCGGCCCGCC,1.33
9,GAACCCGACC,1.58
10,GTCCTTTTAA,1.01
11,CTAATCACT,1.05
12,CGGATCAGTA,1.02
13,CGGATGCC,1.06
14,GGCCGGCCGT,0.977
15,GTCATCCAGC,1.01
16,GATAGGCCTC,1.05
17,ACCGAGTTC,1.05
18,TAACTGCGAT,1.06
19,CGCAAAGGTC,2.54
20,CCTGTCGGGC,1.03
21,CTTTCTAAA,0.962
22,GAGAAAGAA,0.995
23,AAAACATGAT,1.04
24,TTGCCTAAAC,0.982
25,GGAATGTGTA,0.96
26,CCCTAGGATC,1.02

row,Sequence,switch fluorescence ratio
1,GAATAGATGG,0.967
2,AGAGCCAAGG,0.979
3,GCGTATTAGA,1.03
4,TGACCCGTG,1.02
5,CGGGTAAAAC,1.03
6,ACCAACCAGG,1.76
7,TTCGTTTCAT,1
8,TCCTCCATAG,3.26
9,TATGGGATAA,0.988
10,GTCGTTAAAC,1.04
11,AAACATTATG,0.949
12,CTAAGGAT,0.965
13,ATTATGAAGA,1
14,TTTGCCACC,1.02
15,TTACGATTTG,0.988
16,GGGGTCGACC,0.999
17,TGTTGGTGAC,1.02
18,ATAGAGTGA,1
19,CAATGGGG,1.01
20,GTAAGGGGAA,1.02
21,TTCGTGAGTA,1.01
22,GACGCCCGTG,0.954
23,AGTGTTTCGC,1.03
24,CGCGAAAAAC,1.04
25,TGGTTGGCGA,1.05
26,TCATATTCG,0.998

row,Sequence,switch fluorescence ratio
1,ATAAGACCCT,1.05
2,GGTGCGTGGC,0.994
3,TCCATGGCCC,1.04
4,GCCCCGATGC,1.22
5,GTCTGGCTGC,0.985
6,ATAACAGCGG,0.954
7,CCACATGAGG,0.996
8,CAGTAACTAA,1.01
9,TCTCATTT,1.01
10,CCAGACTCTT,1.02
11,CCTATAAGAC,1.69
12,GGACTAAGTT,0.991
13,AGGCACATGG,0.996
14,ACCCTCCTT,1.07
15,ACCCGGGACA,0.997
16,CGCGTTGAAG,1.02
17,ATTAGGACAG,1.01
18,GATTTATAGT,1
19,AATGATTTT,0.938
